This note sets out measurements from ChEMBL document CHEMBL4888484, “Replenishing the malaria drug discovery pipeline: Screening and hit evaluation of the MMV Hit Generation Library 1 (HGL1) against asexual blood stage Plasmodium falciparum ,using a nano luciferase reporter read-out” (2022).

Hit rate of the full screen: of about 150,000 compounds, about 540 (0.36%) showed an effect of 50% or more. This is one part of the list.

This assay has as its system Plasmodium falciparum. Description: Primary screen in NF54 nanoGlo assay, in single point, at 2uM, 72h; a lower Z score goes with more inhibition. As to conditions: timepoint 72 hour. It is filed as functional, Erythrocyte.
In general, % Inhibition refers to the relative decrease from the control value, in per cent. For `COc1ccc2c(c1)c(CN1CCC([C@H](C)O)CC1)cn2C`, the “% Inhibition” value is -7% and the Z score is 1.31.
Regarding `C/C=C1/CN2[C@H]3C[C@@]45c6ccccc6N[C@@H]4[C@@H]2C[C@@H]1C3(C(=O)OC)[C@H]5O` (some centres not stated), the “% Inhibition” value is -3% and the Z score is listed as 0.41.
On to `CN(C)c1ccc(S(=O)(=O)F)cc1`, for which the “% Inhibition” value is listed as 8% and the Z score was -1.41.
The corresponding values for `O=C(CCc1cccnc1)N1CC[C@@]2(CCCN(CC3CC3)C2)C1` are -5% and 0.71.
In the case of `Cc1cccc(C)c1-n1nnnc1C1(NCCc2ccccc2)CCC(C)CC1` (configuration not stated), the “% Inhibition” value is recorded as -3% and the Z score is listed as 0.41.
With `C[C@@H](Cc1ccccc1F)NCc1nnc(C2CC2)s1`, the “% Inhibition” value is reported as -13% and the Z score turned out to be 1.36.
The corresponding values for `CC1CC2(O)c3nonc3CCC2N1O` (configuration not stated) are 29% and -3.26.
For the compound `Cn1ccnc1CN1C[C@@H]2Oc3ncccc3S(=O)(=O)N[C@@H]2C1`, the “% Inhibition” value is listed as 8% and the Z score is listed as -1.19.
For `COc1cccc([C@H]2CN(C(=O)c3[nH]cnc3C)[C@@H]3C4CCN(CC4)[C@H]23)c1`, the “% Inhibition” value is on record as -6% and the Z score is 0.57.
Turning to `CCc1nc(C)sc1CN1C[C@@H]2CC[C@H]1CN(c1ncccn1)C2`, the “% Inhibition” value is -25% and the Z score came to 2.65.
On to `O=C1NC(=O)N(c2ccccc2)C(=O)[C@H]1Cc1ccc(Cl)cc1`, for which the “% Inhibition” value is -1% and the Z score is 0.09.
`C[C@@H]1CN(c2ncnc3[nH]ccc23)CCN1`: the “% Inhibition” value is given as 2% and the Z score is -0.22.
Consider `O=C(Nc1nccs1)c1c(O)c2c(n(Cc3ccco3)c1=O)CCCC2`, for which the “% Inhibition” value was -17% and the Z score amounted to 1.52.
As for `Fc1ccc2c(N3CC[C@@]4(CCCNC4)C3)nccc2c1`, the Z score was -0.55.
With `CN(C(=O)Oc1cc2ccccc2cc1OC(=O)N(C)c1ccccc1)c1ccccc1`, the “% Inhibition” value was determined as 19% and the Z score was -3.52.
For the compound `O=C(Cc1ccsc1)N1CCCCC[C@@H]1CN1CCOCC1`, the “% Inhibition” value is recorded as -7% and the Z score is 1.06.
On the same counts, the results for `Cc1cccnc1C[C@H](O)C(Cl)(Cl)Cl` are -2% and 0.34.
The corresponding values for `Nc1ccc(N2CCN3CCC[C@H]3C2)cc1` are 36% and -4.1.
As to `CN(C)S(=O)(=O)c1ccc2c(c1)oc(=O)n2CC(=O)c1ccc(OCc2ccccc2)c(F)c1`, the “% Inhibition” value is given as -2% and the Z score stood at 0.22.
Regarding `C[C@@H](C(=O)c1ccc(N)cc1)N1CCCCCC1`, the “% Inhibition” value is given as -2% and the Z score is 0.27.
With `O=C(Cn1ccc2ccccc2c1=O)NCC(=O)N1CCC2(CC1)OCCO2`, the “% Inhibition” value is recorded as 3% and the Z score is -0.34.
For `CC(C)=CC1C(C(=O)N2CCC3(CC2)OCCO3)C1(C)C` (configuration not stated), the “% Inhibition” value is reported as -13% and the Z score is given as 1.89.
On the same counts, the results for `CCc1ccc(NC(=O)CN2C(=O)CN=C(c3ccccc3)c3ccccc32)cc1` are 0% and 0.04.
On to `CCOC(=O)NCCC(=O)OCCS(=O)(=O)c1ccc2[nH]c(=O)oc2c1`, for which the “% Inhibition” value worked out at 32% and the Z score is listed as -3.62.
